Data taken from the RNAGym collection of RNA variant scans (doi:10.7554/elife.90254).
The source gives no read counts; variants with many changes may rest on few reads.

B1: OR4K15 (parent)
chain: GUUAACGGUCAUAGGCCAUGGAAACUAGGAGCACCAUUUCGCUGCCAGUGAAGAAAUGAACAAAGAAAAUCUGGGCCAGGCAGGCAUCAAAAGAAAUAGUCUUGCGCUCAACCAGAAAGUCUGUAAUCAUUUUAAGGGUA

Variants of: B1
Test: self-cleavage, relative activity (ratio to wild type); higher = more cleavage; in vitro, sequencing; the parent is a self-cleaving ribozyme

Row | Variant | self-cleavage
1 | A13G G41C A60G U103C | 0.98
2 | U9C A24G G73A | 0.23
3 | U57C A98G U102C U124A A135G | 0.75
4 | A59G U100C U130C | 2.44
5 | A4G A33G U97C U122A | 0.71
6 | A33G A94G U124C | 0.4
7 | A67G G106U A111G | 0.03
8 | A23U U43C A91G | 1.44
9 | C45U A51G U108C A118G | 0
10 | A55C A118G U120C | 0.11
11 | A56G U57C A59U A86G A90G A114G | 0.08
12 | A59U A114G G137A | 0.26
13 | A23G A54U A55G U120C U139C | 0.4
14 | G80A A94G U108G | 0.01
15 | A56G U57C A90G A95G | 1.52
16 | U12C A91G A116G U131C | 0.48
17 | A11G A52G A117G | 1.28
18 | C6A A11C U72C A92G A96G | 0.08
19 | U37C A66C A116G | 0.52
20 | A18G A22U U39A A95G | 2.1
21 | A11G U39C U72A | 0.11
22 | A22G G41U A116G | 0.84
23 | A52G U87C A90G | 0.34
24 | U49C A94G U97C | 1.05

Row | Variant | self-cleavage
25 | A30U G50A U70C A89U A96G | 0.97
26 | A11G A30G A96G | 0.68
27 | A11C A69G A86G | 0
28 | A33G A52G U108C A118G | 0.01
29 | A23G A54G A69G A91G U100A G106A | 0.05
30 | U2C A24C A68U A90G | 1.62
31 | A24G U43C A52G A64G A67G A140C | 1.12
32 | U37C A96G U120A | 1.69
33 | U57C U102A A125G | 0.06
34 | U19C A69G C81U | 0.23
35 | A13G G48A A78G U100C A125G | 0.32
36 | U43C A64G C107U | 0.01
37 | A66G A67G A114G | 0.35
38 | A24G A30G U108C | 0.07
39 | A30G A54G A125G | 0.28
40 | U38C U127A A129G | 0.9
41 | A22G A23G A64G A86G A90G A126G | 0.3
42 | A55G C105U A117G | 0.07
43 | U9A U26C U37C | 1.33
44 | A33G A64G U124C | 0.84
45 | A52G A89G A92U | 0.65
46 | U2C G7U A47G A63C | 1.32
47 | U37C U38C G74A | 0.32
48 | A27G A33G A52U A60G | 1.18

Row | Variant | self-cleavage
49 | A36G A89U U103C G137A A140G | 1.62
50 | A5G A54G A94G | 0.5
51 | A64G A95G A111G | 0.03
52 | A5G A55U U132C | 1.76
53 | U19C G48U U100C | 2.23
54 | A22G A47U U130C | 0.73
55 | A51G C71A A96G | 0.09
56 | A24C A33G A78G A98G | 0.08
57 | A4G U38A U100C | 1.44
58 | U38C A60U A82U U131C | 0.24
59 | U49G A55G A60G | 1.12
60 | U9C U70C A82G A95G A111U | 0.09
61 | A55G A90G A94G | 0.8
62 | A18C A94G A116G U122A | 0.44
63 | U9A U37C U100C A114G U122C | 0.32
64 | U97G A98G U130C | 1
65 | U19C A22G A23G A78U | 0.6
66 | A4G A30G U38C | 1.34
67 | A33G U38G A98G | 0.14
68 | A82G A95G U100C U131A | 1.14
69 | A51G A52G U120A A135G | 1.11
70 | A51G U57G A67G | 0.72
71 | A18G U37C U108C U131C | 0.02
72 | C40U C76U U120C | 0.1

Row | Variant | self-cleavage
73 | U9C A91U A129G | 1.6
74 | A5G A23G A52U | 1.03
75 | C34U A56G G79A A135G | 0.21
76 | U9C U39A A86U U108C U130C U131C | 0.01
77 | A47G A64U A66U A89U | 1.14
78 | A59U A78U A86C A126G | 0.21
79 | U2C A11U U39C A52G A59G A89G | 0.48
80 | A5G A24G U57C | 0.55
81 | A98G U108C G123A U133C | 0
82 | A52G U70C A125G | 0.16
83 | A24G A30U U100C A117G | 2.03
84 | U38C U108C A129G | 0
85 | U38C U102C A110U A118G U132C | 0.89
86 | U3C A23U A54G A89G C113U | 0.05
87 | U49A A69G A86G | 1.61
88 | U12C U70C A116U U122A | 0.14
89 | U26C A69G A91G G99U | 0.15
90 | A5U A47U A56G U100C U120A | 2.44
91 | A95G U102C U108C | 0.01
92 | A67G U72C A129G | 0.07
93 | A64G G123U U131C | 2.69
94 | A22G U97C A116G | 0.18
95 | A36U A96G C121U U122C U130C U139C | 0
96 | A36G U87C G138A | 1.66

Row | Variant | self-cleavage
97 | U9G A23G U108C A129G | 0.01
98 | A30G A56G A69G | 1.26
99 | G58A U108C C113U | 0.02
100 | C17A U49A A64G | 1.29
101 | A89C U100C A116G | 1.99
102 | A94G U103C A117U | 1.09
103 | A23G A78U U87A A114U A117G U130C | 0.01
104 | U39C U57C A118G | 0.74
105 | U2C A68G A96G | 0.38
106 | U37C A51U U72A A140G | 0.19
107 | A27U A67G A96U U100A A135G | 0.37
108 | A54G A62C U120C | 1.13
109 | A33G A54G A134U | 1.88
110 | A5G U9C A18G | 0.91
111 | A5G A68G C88A | 0.91
112 | A66G G84C A114U | 0.02
113 | U26C A56G A78G | 0.3
114 | A11U U70C A94G A129U | 0.08
115 | G7A A69U G115A C121U A129U | 0.06
116 | A94U A114U U139C | 0.11
117 | A18U A60U U87C | 0.74
118 | A23G U49C A63G G138A | 1.57
119 | A4G U12C A30G G104A A111G | 0.07
120 | U39A A59G A82G U108C U127C | 0

Row | Variant | self-cleavage
121 | U26A U38C U102C | 2.01
122 | A13G U37C A67U A135U | 1.67
123 | U2C G99A A111U U130C | 0.01
124 | A23G U102C A140G | 0.88
125 | A60G A62G A114G A116G | 0.05
126 | A22G U43C U49C G50U U87C A91G | 0.66
127 | U38C A60G A78U U87C A118G U127C | 0.01
128 | A24C A62U U100A C121U | 1.49
129 | A33G A67C A126G | 1.64
130 | A24U A118G U133C | 1.23
131 | A5G G106A A114G | 0.02
132 | A5G U38C A82U A91G C121U U132C | 0.21
133 | A47U A55G U131C | 0.1
134 | U2A A30G U43A U127A A129G | 2.15
135 | A47G A59G A111U A118U | 0.01
136 | A22G A51G U72A A94G G104A | 0.02
137 | A60G U132C U139C | 1.21
138 | U43C A94G A114U A116U | 0.03
139 | A5G A33G A51G | 1.08
140 | C6A U19C U124A | 0.57
141 | A64G A114U U120G | 0.12
142 | A54G A64G U131C U132C | 1.07
143 | A59C A63G A91G | 0.65
144 | U43A A55G A60G A89U A125G | 0.69

Row | Variant | self-cleavage
145 | U38C A96G A129G | 0.78
146 | A55G A60G U103C | 0.72
147 | U9C U97C A126G | 0.88
148 | A22G A23G U43A A82U A110G A129U | 0.08
149 | A59G A67G A86G | 0.83
150 | U2G A22U U131C | 1.57
151 | A23G A55U U120C | 0.67
152 | A56G U57A A68U | 1.58
153 | A64U A89G A111G | 0.02
154 | U38C U43C A78U | 0.37
155 | U43C G50U A51G A69U A86G | 0.42
156 | U2C A11C U49C A116U | 0.15
157 | A59U A90G A118G | 0.71
158 | A5G U38C A82G A86G | 0.17
159 | U12A U43A A63G A69G | 1.17
160 | U3C A30G A59G A111G A116U A118G | 0
161 | A62G A63G A86G | 0.88
162 | U37C A52G U108C A114G | 0
163 | A23G A62G A96G G106A | 0.03
164 | G7U A64G A69G A96G U122C | 1.34
165 | U12C A22G U37C G115U | 0.02
166 | C16U U87C C105G | 0.14
167 | A13G U38A U57G U122A | 0.92
